# According to US5883107A, “Arginine mimic derivatives as enzyme inhibitors” (Corvas International, Inc., priority 1995, dated 1999):
# Tests used:
# citrated rat plasma = test system: citrated rat plasma
# Procedure: The control clotting times (0 inhibitor) for rat and human plasma were seconds and 28 seconds, respectively. The concentration of Isomer B which caused a doubling of the control clotting time in rat and human plasma was 39 micromolar and 21 micromolar, respectively. The data represents the mean of two independent determinations.
# Fresh frozen citrated pooled normal human plasma was obtained from George King Biomedical, Overland Park, KA. Pooled normal rat plasma was prepared from citrated whole blood collected from anesthetized rats using standard procedures. The plasma was flash frozen and stored at -80° C. until use. Measurements APTT was made using the Coag-A-Mate RA4 automated coagulometer (GenOklahoiagnostics, Organon Technica, Oklahoma City, Okla.) using the Automated APTT reagent (Organon Technica, Durham, N.C.) as the initiator of clotting according to the manufacturers instructions. The assay was conducted by making a series of dilution's of the test compounds in rapidly thawed plasma followed by adding 200 microliters to the wells of the assay carousel.
smiles,measurement,setting,value
"CCCC(CCC)C(=O)N[C@@H](CC(=O)OC)C(=O)N1CCC[C@H]1C(=O)N[C@H](C=O)CC1CCCN(C(=N)N)C1 (single isomer, unassigned) [Isomer 11B, alpha-N-(propylpentanoyl)-aspartyl(beta-methyl ester)-prolyl-3-[3-piperidyl-(N-guanidino)]-L-alaninal]",concentration which caused a doubling of the control clotting time (APTT),citrated rat plasma,39 µM
same,concentration which caused a doubling of the control clotting time (APTT),citrated human plasma,21 µM
